Sequences and labels used below:
T1: UNK ZnF1-3 (human, UniProt Q9C0B0 31-174)
T1 sequence: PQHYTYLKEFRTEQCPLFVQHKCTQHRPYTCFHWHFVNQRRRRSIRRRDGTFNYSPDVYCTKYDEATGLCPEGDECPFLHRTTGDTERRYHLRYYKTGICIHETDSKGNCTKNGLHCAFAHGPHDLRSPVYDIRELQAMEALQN

B1: chr17:76047126:76047127:+_ENSG00000078687_ENST00000588847|hu_hu|motif|central (ssRNA)
RNA: GGGAGUUCUACAGUCCGACGAUCUGUCUGUUUCACAGAAGCAGCUCCUCCCCAGUUACUCACAUUGUUGUCUUGGGGUUUGCGGGCCCAGUUCUGUUGGGGGCCAGGUUUUAAAGUCUCCCCCCAGUUUGUACCUGGAUUGGCCAACAGAGGAUUGAGCAUCA
B2: chr8:28149726:28149727:+_ENSMUSG00000031483_ENSMUST00000033873|mus_hu|FALSE|FALSE (ssRNA)
RNA: GGGAGUUCUACAGUCCGACGAUCCUCCAGCUAUCAACCCACGGCAAUCAAUCCAGCAGUAUCAUUUAUAGAAUGAUUACUAAAACAAGAAUCAUUUCUCAGUUACAAAUGGGGUCAUUAAGCCCUUGGGGCUCUUUGAAAGUACAACAGAGGAUUGAGCAUCA
B3: 62370663_62371264_2561_CDS_ENSG00000149499_ENST00000394773|human|control|control (ssRNA)
RNA: GGGAGUUCUACAGUCCGACGAUCCCGGUCUCGGCUCUCAUAGCGAUUCUUCAGCUGCUUGCAGCCUCCAGCCACGUCCCAGUAAAGAAUCUCAUAGUCCCCAGAAUUGGACAUGAUGAAAUUCCCAUCCUUGGACCAGUCAAGCAACAGAGGAUUGAGCAUCA
B4: chr11:18503389:18503390:-_ENSG00000074319_ENST00000251968|hu_hu|hu_hu_hu_mus_True|88_88 (ssRNA)
RNA: GGGAGUUCUACAGUCCGACGAUCAUUUUCCAUUUUCUCCAGAGCAGAACUGAGUUCUUCAUCCUUCUUUUUCAAAAGUUCUAUGUUUUUAUCAACUUCAGCUACUUCUUGAUCUAAGCGGGUGACCAUCUCUUCCAGUUUCUGCAACAGAGGAUUGAGCAUCA
B5: chr10:80930753:80930754:-_ENSMUSG00000034818_ENSMUST00000145375|mus_mus|FALSE|FALSE (ssRNA)
RNA: GGGAGUUCUACAGUCCGACGAUCGUGGACAACACUGUUGUCUGUUGCUGCAUGAGAGCCUGGGCGUAGGCACUGUAGGGGCUGAAGGGCAGGGUGAGGGACGGCGUCAGGAUGCCCAGCUGGCCAACCAUCUGCUGCAUACGCCAACAGAGGAUUGAGCAUCA
B6: chr12:40763261:40763262:-_ENSMUSG00000047446_ENSMUST00000101472|mus_hu|FALSE|FALSE (ssRNA)
RNA: GGGAGUUCUACAGUCCGACGAUCAUUGAACUGCAGCCUGUAUAAGACAGUUGUCUUUCCAGCACAGUCCAAACCCAGAAUAACAAUGUGGAAAGACUGAAAUGAAGGCAGGUUGGACAGGAUAGAAGUCUGGUCUGACAGCCCCAACAGAGGAUUGAGCAUCA
B7: chr10:97366135:97366136:-_ENSG00000059573_ENST00000371224|hu_hu|motif|central (ssRNA)
RNA: GGGAGUUCUACAGUCCGACGAUCAUGACUACAUGUGAAAGAAAUAAAAUGUGAAAAGAUUUGUUAAGGAUGACUGGCUCGGGUACCAACUAAAUGCCAAGGGGGACUGUAAGUCACUGAGGUGACACAAAGCAGCCAUGGGUUCAACAGAGGAUUGAGCAUCA
B8: chr10:84137372:84137373:+_ENSMUSG00000034453_ENSMUST00000077175|mus_hu|motif|central (ssRNA)
RNA: GGGAGUUCUACAGUCCGACGAUCGUAAGAGAGCUCUUCCCCACAUAAUAAAUUCACAUCUUCUACUCCCAAGUUACUGGCGGAUUUAACAAUGGGUCCAUCUUCCAUAUCAGUUGUGAUGUGUGUCAUAAGGGCCAAGUUUUUCAACAGAGGAUUGAGCAUCA
B9: chr10:33190432:33190433:-_ENSG00000150093_ENST00000302278|hu_mus|hu_hu_hu_mus_True|48_78 (ssRNA)
RNA: GGGAGUUCUACAGUCCGACGAUCUACAUUUUCCAAACCUGCAUGUGAAUAAAACCCUGGCAAUAUUGCCCCAAAACUACCCUACUGUGACUAUGGAGCUGCUGCUGUGAGCUUGGUGUUGCAAAAUCCGCCUGAGUAGGAUUCCAACAGAGGAUUGAGCAUCA
B10: chr15:76014475:76014476:-_ENSMUSG00000022565_ENSMUST00000071869|mus_mus|FALSE|FALSE (ssRNA)
RNA: GGGAGUUCUACAGUCCGACGAUCAAGCUCUUGGAGAGUGGCAGGCACAGCCUGGGCCUCCUUCAGCUGCUCCUCAUGGGUUUUAAGCACCUCCUCAGCCCCCUGGGUACUGCGAAUCACCAAGCUGAUGGUCUUGAGUUUCUCCAACAGAGGAUUGAGCAUCA
B11: chr1:171510215:171510216:+_ENSG00000117523_ENST00000367742|hu_hu|FALSE|FALSE (ssRNA)
RNA: GGGAGUUCUACAGUCCGACGAUCAGGAUAAUCUCGAGUGUGUCCCCUACCACCCCUGCCACGCCCUCCAUAAGAACCUCUAUAGCUUCGACCUCUGGAGUAAUAUUCACCUCGGCCUCGACCUCUGUAUCCUUGAUCUGGAAACAACAGAGGAUUGAGCAUCA
B12: chr8:74858975:74858976:-_ENSG00000154582_ENST00000284811|hu_mus|hu_hu_hu_mus_True|38_48 (ssRNA)
RNA: GGGAGUUCUACAGUCCGACGAUCGACCUUGUAGGUAAAAUACAUGCACACUUUUGAUAGCACAUGUGAGGGGAUCUCUCUAAAAUUGACCUCAUUGGUUUCGUUCUCAGCAAACUGACCUGGACCACUCAACAUAGCCUUUAUCAACAGAGGAUUGAGCAUCA
B13: chr1:163112212:163112213:-_ENSG00000143248_ENST00000313961|hu_hu|hu_hu_hu_mus_False|18_98 (ssRNA)
RNA: GGGAGUUCUACAGUCCGACGAUCUUUUAUUAUCAGUAAGCAUGAGUUACAUACUAGGCAAAGUAUUGGAUACAAUAAUCAGGAAACAAACACUAUUGGUCCAGAAUUUAAAACUUUUGGGAUAAAUUGCUGGCACAGGACUUACAACAGAGGAUUGAGCAUCA
B14: chr11:77336104:77336105:-_ENSG00000074201_ENST00000525064|hu_mus|hu_hu_hu_mus_False|78_88 (ssRNA)
RNA: GGGAGUUCUACAGUCCGACGAUCCUCACACAUUGCUGUGAACAUCGCCUCCAACGCUGAUUUAUCACUGGGCACAAAUCGAAAUUCAGAAAUGGGUUCAACAUCAUCAUUGUCUUCCUCAUCUUCAUCAGAGAGAGGUUCUUUCAACAGAGGAUUGAGCAUCA
B15: chr18:46664354:46664355:-_ENSMUSG00000033319_ENSMUST00000036226|mus_mus|FALSE|FALSE (ssRNA)
RNA: GGGAGUUCUACAGUCCGACGAUCCGGUUCAGGGAACACUGUAGCAGAAAUGGUUUGGGAGAAAAAGUGGAAACAGGCAAAACUUGAAGACAGAAGUGGGAGCCAGGGGAGGAUGACUUCCAAUUGUAUAAAAUUCACAUACUACAACAGAGGAUUGAGCAUCA
B16: 91403186_91404512_1351_CDS_ENSMUSG00000040549_ENSMUST00000099716|mouse|control|control (ssRNA)
RNA: GGGAGUUCUACAGUCCGACGAUCAGCAUCUCUGACUUCAGGAGCAGAAUCAUUGAUGUGCUUAAGUAGAGCAGCACAAAAGGGUUUUAGUAGACUCUUCGGCAAUGUAGAGGAAGUGCAGUGACGAAAGCUUCUUGCAAUAAACAACAGAGGAUUGAGCAUCA
B17: chr12:118673417:118673418:-_ENSG00000135090_ENST00000392533|hu_hu|FALSE|FALSE (ssRNA)
RNA: GGGAGUUCUACAGUCCGACGAUCAGGUGUGCCCACGAAGGAGUUGGCAGGAGAAGCCAUUGAAGCAGAUCCAAAAUCAGCUAGUUUUACCUGACCUGGCUCUGUUAGAAGAAUAUUUCCUGCUUUAAUAUCCCUAUGAAUCAACAACAGAGGAUUGAGCAUCA
B18: chr5:22955990:22955991:+_ENSMUSG00000029004_ENSMUST00000094962|mus_hu|FALSE|FALSE (ssRNA)
RNA: GGGAGUUCUACAGUCCGACGAUCUGCAUUGGUAUCCAAAACACUGGGGCAUGCCAGCCACAGUGCUCAUUGCAAACAUCUAAGUGCAUCCACAAACCCAUGAGAUGUCUGGUAAAUCUGAGGUCCAAGAAAGAAUAAAUGUCUCAACAGAGGAUUGAGCAUCA
B19: chr1:175956164:175956165:-_ENSG00000143207_ENST00000367666|hu_hu|motif|central (ssRNA)
RNA: GGGAGUUCUACAGUCCGACGAUCAGCAGCAAUCAGCACAUUGGACUCCCCAUCUGGUAGUGCCCUCCAGCACACAGCACGGACAAAUUCAUUUGUAUCAUCUUCUUUUCGGUCUUUGUCGAGAACACUUUUGACUGUAUCAAACAACAGAGGAUUGAGCAUCA
B20: chr3:119450855:119450856:-_ENSMUSG00000028134_ENSMUST00000029780|mus_hu|FALSE|FALSE (ssRNA)
RNA: GGGAGUUCUACAGUCCGACGAUCUGUGGUGCCACUAAGAGGAGUAUUUGCUGUCUGGACAGCUGUCACAGCUUGAAGAACUGCCUGAGCACGUUGGUUUAAUGUAUUAUCUGUCUUUAGUUCUUUGUGAUUCGAGUACUGGAUCAACAGAGGAUUGAGCAUCA
B21: chr7:141438946:141438947:+_ENSG00000106028_ENST00000265304|hu_mus|hu_hu_hu_mus_True|38_58 (ssRNA)
RNA: GGGAGUUCUACAGUCCGACGAUCGACGAAAUACCUGUAACACAGGUCUUCGAAACAUGGCUUCUGUUUUUCUUACAGUCUAAUCUUUAGGCUUUUCCUGACGAUCUGAAAGAAAAGAGAAAAAUGAUAAAUCAAGAAACUACACAACAGAGGAUUGAGCAUCA
B22: chr2:225400320:225400321:-_ENSG00000036257_ENST00000409096|hu_mus|FALSE|FALSE (ssRNA)
RNA: GGGAGUUCUACAGUCCGACGAUCAUUUUCUACAUUAUUCUGUUGUACAUAUACACGGUCCAUAUACAUUAAUAUGUCUCUAAUCAUCACCAUGGCUGUUUGAUGAUCAUUCCAAGCUUGAUUUAGUGUUUGAAGAAAGUUGUUCAACAGAGGAUUGAGCAUCA

We go through 22 molecules from PMC12136788.

The list shows a part of the results.

The experiment has as its target T1, UNK ZnF1-3. The experiment in a line: nsRBNS (natural sequence RNA bind-n-seq); RBNS binding buffer (assumed for nsRBNS): 25 mM Tris pH 7.5, 150 mM KCl, 3 mM MgCl2, 0.01% Triton X-100, 500 ug/ml BSA, 20 U/ml SUPERase-In, 4 C; UNK is unkempt and MSI1 is Musashi-1; names of the RNAs are library labels; protein concentration not given here; high values mean tight binding.
For B1, the binding signal was 1 enrichment R. The molecule B2 gave a binding signal of 1.5 enrichment R.

B3 displayed a binding signal of 0.653 enrichment R. With B4, the binding signal turned out to be 0.504 enrichment R. The molecule B5 returned a binding signal of 0.972 enrichment R. Turning to B6, the binding signal is 0.945 enrichment R. The molecule B7 had a binding signal of 3.12 enrichment R.

B8 gave a binding signal of 0.654 enrichment R. Regarding B9, the binding signal was found to be 1.08 enrichment R. In turn, B10 returned a binding signal of 0.911 enrichment R. B11: the binding signal amounted to 1.03 enrichment R. Molecule B12 yielded a binding signal of 0.845 enrichment R. The result for B13 reads 1.48 enrichment R; that for B14, 1.13 enrichment R. The result for B15 reads 3.07 enrichment R; that for B16, 1.32 enrichment R. B17 yielded a binding signal of 0.542 enrichment R. To B18 belongs 0.839 enrichment R; to B19, 1.03 enrichment R.

For the molecule B20, the binding signal is 0.725 enrichment R.

As to B21, the binding signal amounted to 0.591 enrichment R. Molecule B22 showed a binding signal of 0.461 enrichment R.
